# Measurements: PubChem BioAssay AID1346428 (National Center for Advancing Translational Sciences (NCATS), 2018)
# Values joined by “and” are separate entries in the source; they are usually repeats but may differ in a detail not shown here. Equal values may be shown once. The whole screen tested about 48,000 compounds, of which about 1,200 (2.5%) were called active. Roughly 2% stayed inconclusive and do not appear here.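 The calls were made as follows: active = activation of at least 60% and not above a set upper limit (about 1 call in 100 departs from these limits); inconclusive = activation of 40% to 60%, or above that upper limit; inactive = activation under 40%.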 This is one part of the list.
# Molecular target: Probable G-protein coupled receptor 32 (Homo sapiens) (UniProt O75388)
# Assay: qHTS for Agonists of Human Resolvin D1 Receptor DRV1; also: 0% is about no effect
# Conditions: CHO-K1 GPR32 beta-arrestin PathHunter luminescence, 90 min; at 76.9 µM; hits give high values; zero percent set by DMSO-only wells
# In short: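 Agonism was scored by beta-Gal fragment complementation (chemiluminescent read, 1 h detection at ambient temperature) reporting beta-arrestin binding to GPR32 in engineered CHO-K1 cells. Compound treatment lasted 90 min at 37 C, normalized to a DMSO basal control.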
# UniProt O75388, sequence (O75388 whole entry, looked up): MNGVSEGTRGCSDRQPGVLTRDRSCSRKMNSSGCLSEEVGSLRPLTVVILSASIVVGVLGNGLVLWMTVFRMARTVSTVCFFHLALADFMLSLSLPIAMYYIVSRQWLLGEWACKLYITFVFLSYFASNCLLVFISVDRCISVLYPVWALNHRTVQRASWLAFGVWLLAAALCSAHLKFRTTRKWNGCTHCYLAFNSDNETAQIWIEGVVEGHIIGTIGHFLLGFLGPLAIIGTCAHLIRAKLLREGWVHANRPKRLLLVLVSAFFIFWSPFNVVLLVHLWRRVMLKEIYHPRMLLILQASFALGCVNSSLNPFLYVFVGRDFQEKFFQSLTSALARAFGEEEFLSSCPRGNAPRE
row,Compound,activation
1,CCc1nnc(NC(=O)c2nc(S(=O)(=O)Cc3ccc(C)cc3)ncc2Cl)s1,inactive: 4.11%
2,Cc1cc(C)c(NC(=O)C(C)n2c(=O)c(C(F)(F)F)nc3ccccc32)c(C)c1 (configuration not stated),inactive: 8.23%
3,CCC(=O)N1CCc2cc(S(=O)(=O)NC(C(=O)NCCc3ccccc3)C(C)C)ccc21 (configuration not stated),inactive: -1.77%
4,Cc1cccc(-n2ncc(C(=O)N3CCN(C4CCCCC4)CC3)c2C2CCN(C(=O)OC(C)(C)C)CC2)c1,inactive: -22.3%
5,COc1ccc(OC)c2sc(NC(=O)c3ccc(S(=O)(=O)N4CCCC4)cc3)nc12,inactive: -19%
6,Cc1cc(C)cc(OCC(=O)Nc2nc3c(s2)CC(C(C)(C)C)CC3)c1 (configuration not stated),inactive: 0.69%
7,CCOC(=O)CC(NC(=O)CCc1c(C)nc2c(c(C)nn2-c2ccc(C)c(C)c2)c1C)c1ccc(C)cc1 (configuration not stated),inactive: -3.65%
8,Cc1cc(C)c(S(=O)(=O)Nc2ccc(-c3ccc(N4CCC(C)CC4)nn3)cc2)cc1C,inactive: -7.68%
9,Cc1cccc(C)c1Nc1c(-c2ccccc2F)nc2cccc(C)n12,inactive: -35.3%
10,COc1ccc(OCC(=O)Nc2nnc(S(=O)(=O)N3CCc4ccccc43)s2)cc1,inactive: 31%
11,CCCCN(CC)CCNC(=O)c1c(C)oc2ncnc(N3CCOCC3)c12,inactive: -5.56%
12,CCOc1ccc(C(=O)/C=C/c2cn(CC(O)CN3CCCCCC3)c3ccccc23)cc1 (configuration not stated),inactive: 10.9%
13,CCOC(=O)c1ccccc1NC(=O)C1CCN(c2ncnc3c2nc2n3CCCCC2)CC1,inactive: -17.7%
14,Cc1ccccc1C(=O)Nc1cc2c(cc1N1CCOCC1)n(C)c(=O)n2C,inactive: 5.48%
15,Cc1ccc2oc3c(c(=O)c2c1)C(c1ccc(O)cc1)N(Cc1ccc2c(c1)OCO2)C3=O (configuration not stated),inactive: -16.6%
16,CCOc1ccc(C(=O)c2cn(CC(=O)Nc3ccc(OC)cc3)c3cc4c(cc3c2=O)OCCO4)cc1,inactive: 1.9%
17,CCC1(C)CC(=O)c2c(ccc3oc(C(=O)NCc4ccccc4)c(C)c23)O1 (configuration not stated),inactive: -20.1%
18,COc1ccc2[nH]c(=O)c(CN(C(=O)c3cccc(Cl)c3)c3ccccc3C)cc2c1,inactive: -3.92%
19,COc1ccc2occ(CC(=O)Nc3ccc(S(=O)(=O)Nc4nccc(C)n4)cc3)c2c1,inactive: -7.84%
20,Cc1ccc(CNC(=O)c2sc3nc[nH]c(=O)c3c2C)cc1,inactive: -5.51%
21,CC1CN(c2ccc(Cl)cc2)c2nc3c(c(=O)n(CC(=O)O)c(=O)n3C)n2C1 (configuration not stated),inactive: -5.17%

row,Compound,activation
1,CN1C2CCCC1CC(NC(=O)c1nn(C)c3ccccc13)C2 (configuration not stated),inactive: -3.93%
2,Cc1cc2nnc(SCc3ccc(F)cc3)n2c2ccccc12,inactive: 14.1%
3,CC(C)CCn1c(=O)c2cccnc2n(CC(=O)Nc2ccc(F)cc2)c1=O,inactive: -1.2%
4,COc1cccc(-c2cc(C(=O)Nc3c(C)nn(Cc4ccccc4Cl)c3C)no2)c1,inactive: -8.65%
5,C#CCn1c(C2CC(=O)N(c3ccc(OC)cc3)C2)nc2ccccc21 (configuration not stated),inactive: -1.98%
6,CN1CCN(C2(CNC(=O)c3ccc(C(C)(C)C)cc3)CCCCC2)CC1,inactive: -4%
7,Cc1cccc(-n2ncc(C(=O)N3CCN(c4ccc(Cl)cc4)CC3)c2C2CCN(C(=O)OC(C)(C)C)CC2)c1,inactive: -19.2%
8,O=C1OC(C(=O)Nc2cccc(Br)c2)Cc2ccccc21 (configuration not stated),inactive: -16%
9,Cn1nc(C(=O)NCc2ccc(Cl)cc2)c2c1-c1ccccc1S(=O)(=O)C2,inactive: -3.66%
10,Cc1ccc(OCc2nc(-c3ccc(C(=O)N4CCN(c5ccccc5F)CC4)cc3)oc2C)cc1,inactive: -7.89%
11,COc1ccc(OC)c(CNC(=O)c2cc3c(-c4ccc(OC)c(OC)c4)nn(C)c3s2)c1,inactive: -4.81%
12,CCc1ccc2nc(N(CCN(CC)CC)C(=O)c3ccco3)sc2c1,inactive: 47.8%
13,Cc1ccc(NC(=O)c2ccc(-c3cccc(Cl)c3C)o2)cc1,inactive: -12.6%
14,CCCCCn1c(=O)[nH]c2cc(C(=O)Nc3cc(C)cc(C)c3)ccc2c1=O,inactive: 6.25%
15,CN(C)S(=O)(=O)N(CC(=O)NCCSCc1ccccc1)c1ccccc1,inactive: 12%
16,Cc1ccc(C)c(NC(=O)CN2CCCN(Cc3cccc(Cl)c3)S2(=O)=O)c1,inactive: -11.6%
17,COc1ccc(Cl)cc1NC(=O)c1cc(S(=O)(=O)NC2CCCCCC2)ccc1F,inactive: -31.8%
18,Cc1cccc(N2C(=O)N(CC(=O)C(C)(C)C)c3ccccc3S2(=O)=O)c1C,inactive: -19.1%
19,Cc1cc(OC(C)C(=O)Nc2c(C(=O)c3ccc(F)cc3)oc3ccccc23)ccc1Cl (configuration not stated),inactive: 8.86%
20,Cc1cccc(NC(=O)CSc2cn(CC(=O)N3CCCCCC3)c3ccccc23)c1,inactive: -12.8%
21,CCc1ccc(Sc2cc(C(=O)NCc3ccccc3OC)c3ccccc3n2)cc1,inactive: -1.33%

row,Compound,activation
1,CCc1ccc(Sc2cc(C(=O)NCc3cccc(OC)c3)c3ccccc3n2)cc1,inactive: 5.63%
2,COc1ccc(C2NC(=O)N(C)C3=C2C(=O)N(c2cccc(Cl)c2)C3)cc1 (configuration not stated),inactive: -2.65%
3,CCOc1ccc(N2CC(NC(=O)C(=O)c3c[nH]c4ccccc34)CC2=O)cc1 (configuration not stated),inactive: 10.9%
4,CCn1c(=O)cc(SCC(=O)NCc2ccc(F)cc2Cl)c2ccccc21,inactive: 12.6%
5,COC(=O)c1ccc(OCC2c3cc(OC)c(OC)cc3CCN2C(=O)Cc2ccc(OC)cc2)cc1 (configuration not stated),inactive: -12.7%
6,Cc1c(Cl)cccc1NC(=O)c1cccc(NC(=O)N2CCSc3ncccc32)c1,inactive: 6.65%
7,CC(NC(=O)c1ccc2c(c1)CCN2S(C)(=O)=O)c1ccccc1 (configuration not stated),inactive: 8.23%
8,CCOc1ccc(NC(=O)CSC2=Nc3ccccc3C3=NC(CCC(=O)NCc4ccccc4)C(=O)N23)cc1 (configuration not stated),inactive: -9.62%
9,Cc1ccc(CNC(=O)c2ccc3c(c2)nc(C)n3-c2cccc(F)c2)cc1,inactive: -29%
10,CCCCOc1ccc(-c2nn(-c3ccccc3)cc2C2NC(=O)NC(C)=C2C(=O)OCC)cc1 (configuration not stated),inactive: 27.8%
11,Cc1cc2oc(C(=O)Nc3ccc(S(N)(=O)=O)cc3)cc(=O)c2cc1C,inactive: -5.76%
12,O=C(c1cc2ccccc2oc1=O)N1CCN(c2ccc(Cl)cc2)CC1,inactive: 26.1%
13,O=C(NCCc1ccccc1)c1cnc2sc(N3CCCCCC3)nn2c1=O,inactive: 0.483%
14,COc1ccc(OCC(=O)NCc2ccc3c(c2)CCN3C(=O)c2ccccc2)cc1,inactive: -6.44%
15,CCc1ccc(C(=O)c2cn(CC(=O)Nc3cccc(OC)c3)c3ccc(OC)cc3c2=O)cc1,inactive: 1.31%
16,Cc1ccc(C(=O)N2c3ccc(C)cc3C(C)(c3ccccc3)CC2(C)C)cc1 (configuration not stated),inactive: -40.4%
17,CCc1cccc(NC(=O)CN2C(=O)COc3ccc(S(=O)(=O)Nc4ccccc4)cc32)c1,inactive: 23.5%
18,CCOC(=O)c1ccc(N2C(=O)c3[nH]nc(-c4ccc(C)cc4)c3C2c2cccc(F)c2)cc1 (configuration not stated),inactive: -5.06%
19,COC(=O)c1ccccc1NC(=O)CSc1nc2ccccc2nc1Cc1ccccc1OC,inactive: 9.45%
20,CCOC(=O)c1c(-c2ccc(Br)cc2)csc1NC(=O)c1ccc(F)cc1,inactive: -4.23%
21,CC(C)OCCCNC(=O)c1ccc2c(c1)NC(=O)c1ccccc1S2,inactive: 9.51%

row,Compound,activation
1,O=C(Nc1cc(-c2nc3ccccc3o2)ccc1Cl)c1ccc(N2CCCCC2)c([N+](=O)[O-])c1,inactive: -1.73%
2,O=C(CCS(=O)(=O)c1cc(Br)cc2c1N(C(=O)C1CC1)CC2)NCc1ccc(Cl)cc1,inactive: -5.78%
3,CN(C(=O)c1cc2nc(-c3ccco3)cc(C(F)(F)F)n2n1)c1ccc(OC(F)(F)Cl)cc1,inactive: -4.98%
4,CCn1c(=O)sc2cc(NS(=O)(=O)c3ccc(F)c(C)c3)ccc21,inactive: 18.4%
5,Cc1ccc(CSc2cn(CC(=O)N3CCCC3)c3ccccc23)cc1,inactive: -5.45%
6,CCN(Cc1ccncc1)C(=O)C(CO)c1ccccc1 (configuration not stated),inactive: -6.41% and inactive: -6.37%
7,Cc1ccc(NC(=O)Cn2cc(S(=O)(=O)c3ccc(C)cc3)c(=O)c3cc4c(cc32)OCO4)cc1,inactive: -0.379%
8,Cc1ccc(-c2nc(SCCOc3ccccc3C)n3[nH]c(=O)cc3n2)cc1,inactive: -43.5%
9,COc1ccc(CCN2CCC(Nc3nc4ccccc4n3Cc3ccc(F)cc3)CC2)cc1,active: 94.6%
10,COc1ccc(C2c3c(n(C)c4ccccc34)C(=O)N2CC(=O)Nc2ccc(C)c(Cl)c2)cc1 (configuration not stated),inactive: -23.8%
11,CCOC(=O)C1CCN(c2nc3c(S(=O)(=O)c4ccccc4)nnn3c3ccsc23)CC1,inactive: -37.2%
12,Nc1nc(SCc2ccc([N+](=O)[O-])cc2)c2ncn([C@@H]3O[C@H](CO)[C@@H](O)[C@H]3O)c2n1,inactive: 5.72%
13,CCc1ccccc1N(CC)C(=O)c1c(C)oc2ncnc(N3CCOCC3)c12,inactive: -10.6%
14,O=c1c2oc3ccccc3c2n(Cc2ccc(Cl)cc2)c(=O)n1Cc1ccco1,inactive: -4.78%
15,O=C1COc2cc(S(=O)(=O)NCc3ccco3)c(Cl)cc2N1,inactive: -3.73%
16,CC1=C(c2ccc(C)c(C)c2)S(=O)(=O)N=C1N1CCC(C(=O)N2CCC(C(N)=O)CC2)CC1,inactive: -5.98%
17,COc1ccc(NC(=O)Nc2nnc(C)s2)cc1,inactive: -11.5%
18,Cc1ccccc1C(=O)Nc1ccc(OCc2cc(=O)n3cccc(C)c3n2)cc1,inactive: -5.12%
19,CCN(C(=O)C1CCC(CNS(=O)(=O)c2cccc3nsnc23)CC1)c1ccc(C)c(C)c1 (configuration not stated),inactive: -17%
